84 molecules from PubChem BioAssay (NCI) can be followed below.

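Each compound was tested at five concentrations against cells in 96-well plates for 48 hours. GI50: concentration for 50% inhibition of growth. TGI: concentration producing complete growth inhibition.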 Where only a bound is given, the exact number is not on record here.

The assay concerns NCI-H322M lung. Kind of assay: NCI tumour cell line growth inhibition, 48 h.
As to `CN1CCN(Cc2ccccc2)CC1CC#N` (stereo not given), the TGI was greater than 100 µM. Still for that read-out and setting: the result for `Cc1ccc(O)c(C2=NNC(c3cccc(Cl)c3)C2)c1` (stereo not given) reads greater than 100 µM; that for `c1cc2c3ccsc3c3sccc3c2s1`, greater than 100 µM. Molecule `Cc1ccc(NC(=O)CCC(=O)C2Cc3ccccc3C2=O)cc1C` (stereo not given) registered a TGI greater than 100 µM. Regarding `CN1C(=O)N(c2nc3ccccc3[nH]2)C(C)(C)C1=O`, the TGI was greater than 100 µM. For the molecule `O=c1[nH]c2ccccc2n1C1CCN(CCOc2ccccc2)CC1`, the GI50 was 98 µM and the TGI was greater than 100 µM. Take `Clc1ccc(N2N=C(c3cccc(Nc4ccncc4)c3)CC2c2ccc(Br)cc2)cc1` (stereo not given): the GI50 was 1.58 µM and the TGI was 2.97 µM. `Nc1no[n+]([O-])c1-c1nnc2c(n1)-c1ccccc1C2=O`: the GI50 was 3.03 µM and the TGI turned out to be 10.6 µM. For `CN1/C(=C/C=C/c2n(Cc3ccc4ccccc4c3)c(Cl)c(Cl)[n+]2Cc2ccc3ccccc3c2)Oc2ccccc21`, in that order: 0.617 µM and 1.87 µM.

As to `C[C@]12CC[C@H](O)CC1=CC[C@@H]1[C@@H]2CC[C@]2(C)NC(=O)/C(=C\c3ccccc3)C[C@@H]12`, the TGI was found to be 28.8 µM. Take `NS(=O)(=O)c1cc(C(=O)O)c(Cl)c([N+](=O)[O-])c1Cl`: the TGI is greater than 100 µM. For `CC(C)(C)OC1=C(OC(C)(C)C)C(O)(c2ccc(Cl)cc2)C1=O` (stereo not given), the TGI was greater than 100 µM.

`CN(C)CCNC(=O)c1cccc2c1nc(-c1ccncc1)c1ccccc12`: the TGI is 18.9 µM. Take `C=C1C(=O)O[C@H]2[C@H]1CC/C(COC(=O)/C=C\C(=O)NCc1ccc(Cn3c(=O)sn(-c4ccc(Cl)cc4)c3=O)cc1)=C\CC[C@@]1(C)O[C@@H]21`: the GI50 was 1.86 µM and the TGI was 4.79 µM. As for `Cn1cc(-c2nc(-c3cn(C)c4ncccc34)cs2)c2ccccc21`, the GI50 is 2.76 µM and the TGI was determined as 51.5 µM. `CC(C)=CCOc1ccc(-c2coc3cc4c(c(O)c3c2=O)C=CC(C)(C)O4)cc1` registered a TGI greater than 100 µM. As for `COc1cc(NCCC2CCCCN2)c2ncccc2c1OC` (stereo not given), the GI50 was 15.9 µM and the TGI was determined as 33.7 µM.

On to `CCOC(=O)c1cc2c(n1Cc1ccccc1OC)-c1oncc1CCC2`, for which the GI50 is 5.23 µM and the TGI was greater than 100 µM. `N#CC(C#N)=C1CCC2C(=C(C#N)C#N)CCC12` (stereo not given) registered a TGI greater than 100 µM. The same measure, in the same setting: the result for `O=C(OCc1ccccc1)n1cccc1` reads greater than 100 µM. As for `CCOC(=O)c1cc2c(n1Cc1cc(OC)cc(OC)c1)-c1oncc1CC2`, the GI50 is 0.505 µM and the TGI is greater than 100 µM.

For the molecule `N/C(=N/S(=O)(=O)c1cc(C(=O)Nc2ccc(F)cc2)c(Cl)cc1SCc1ccccc1)Nc1ccccc1O`, the GI50 is 1.62 µM and the TGI turned out to be 3.47 µM. For `Cc1ccc(/C(=C/C=C(C#N)C#N)Sc2nc3ccccc3s2)cc1`, in that order: 15.8 µM and 34.6 µM. In turn, `N#CC1=C(c2ccccc2)OC2(N)OC(c3ccccc3)=C(C#N)C12C#N` (stereo not given) returned a TGI greater than 100 µM. `Cc1nn(-c2ccccc2)c2nc(C)n(-c3ccc(Br)cc3)c(=O)c12`: the GI50 is 7.12 µM and the TGI is greater than 100 µM. The molecule `O=C1C2C3C=C4c5ccccc5N(c5ccccc5)C4([C@@H]2C(=O)N1c1ccc(F)cc1)[C@H]1C(=O)N(c2ccc(F)cc2)C(=O)[C@@H]31` (stereo not given in full) showed a TGI greater than 100 µM. Still for that read-out and setting: the result for `COC(=O)/C(C#N)=C/c1cc(C(C)(C)C)c(O)c(C(C)(C)C)c1` reads greater than 30 µM; that for `N#Cc1c(N)c2c(c(-c3ccccc3)c1-c1ccccc1)C(=O)N(O)C2=O`, greater than 100 µM.

In the case of `Nc1cc(N)c2nc(-c3ccccc3)c(NCc3ccc(Cl)c(Cl)c3)nc2c1`, the GI50 is 13.5 µM and the TGI was found to be 30.5 µM. `CCCCCC(/C=C/c1ncccc1OCCCCCC(=O)O)=N\NC1=NCCN1`: the TGI is greater than 100 µM.

Consider `CN(C(=O)c1ccccc1)c1ccc2c(c1)C(=O)c1ccccc1C2=O`, for which the TGI was greater than 100 µM.

In turn, `COc1cc2c(cc1O)C(=O)O[C@@H]1CC=C3CCN(C)[C@H]3[C@H]21` came in with a TGI greater than 25 µM.

The molecule `N#CCC(=O)Nc1ccccc1O` returned a TGI greater than 100 µM.

`COc1ccc(C(Nc2ccccn2)c2cc(C(C)(C)C)cc(C(C)(C)C)c2O)cc1` (stereo not given) came in with a TGI greater than 100 µM. As for `C=C1C(=O)O[C@H]2[C@H]1CC/C(COC(=O)N[C@H](Cc1c[nH]c3ccccc13)C(=O)OC)=C\CC[C@@]1(C)O[C@@H]21`, the GI50 was 9.31 µM and the TGI was found to be 21.4 µM. For `CC[C@]1(Cc2ccc(OC)c(OC)c2)C=[N+]([O-])O[C@H](OCc2ccccc2)[C@@H]1OC(C)=O`, the TGI is greater than 100 µM. The same measure, in the same setting: the result for `N#CC(C#N)=Cn1c(=S)[nH]c2ccc([N+](=O)[O-])cc21` reads greater than 100 µM; that for `C/C(=C\CC/C=C(\C)CC/C=C(\C)CCC1SC1(C)C)CC/C=C(\C)CCC1OC1(C)C` (stereo not given), greater than 100 µM. On to `C/C=C(\C)C(=O)O[C@@H]1C=CC(=O)O[C@H]1CNC(=O)[C@H](C)O`, for which the GI50 was 28 µM and the TGI worked out at 75.4 µM. `COC(=O)CNC(=O)CSc1nnc(COc2ccc(Cl)cc2)n1-c1ccccc1` displayed a TGI of 50 µM. Turning to `COc1ccc2c(c1)C(=O)c1c-2n(CCCCl)c(=O)c2cc(N)ccc12`, the GI50 was greater than 100 µM and the TGI was greater than 100 µM. In the case of `Cc1cc(OCc2nn(CN3CCN(C)CC3)c(=S)n2/N=C/c2ccc(F)cc2)ccc1Cl`, the GI50 is 16.4 µM and the TGI was 36.8 µM.

`CCN1C/C(=C\c2ccc(Cl)cc2)c2[nH]c(=O)c(C#N)c(-c3ccc(Cl)cc3)c2C1`: the TGI was greater than 100 µM. In turn, `Cc1ccc2c(c1)CC1(C2)Cc2ccc(C)cc2C1=O` (stereo not given) displayed a TGI of 55.5 µM. For `CC1(C)CC[C@]2(CO)CC[C@]3(C)C(=CC[C@@H]4[C@@]5(C)CCNCC(C)(C)[C@@H]5CC[C@]43C)[C@@H]2C1`, the GI50 was 3.98 µM and the TGI was found to be 14.7 µM.

`Cn1c(N)c(/C=C/C(=O)Oc2ccccc2)c(=O)n(C)c1=O` came in with a TGI greater than 100 µM. With `Cc1ccc(C2C3Cc4ccccc4C3=NN2c2ccc(S(=O)(=O)NC(=O)Nc3ccccc3)cc2)cc1` (stereo not given), the GI50 is 17.6 µM and the TGI amounted to 35.8 µM. `Cc1ccc(O)c(C(c2cc(C)ccc2O)c2cc([N+](=O)[O-])ccc2O)c1` registered a TGI of 36.4 µM. Turning to `COC(=O)C1=COC2OC3CC1C2C(C)O3` (stereo not given), the TGI is greater than 100 µM.

As for `CCOC(=O)c1ccc(N(CCOS(=O)(=O)c2ccc(C)cc2)CCOS(=O)(=O)c2ccc(C)cc2)cc1`, the TGI is greater than 100 µM. `NCCCNc1nc2ccccc2c2c(=O)c3cc(F)cc(Cl)c3sc12`: the GI50 is 1.69 µM and the TGI stood at 3.21 µM. On to `C/C=C1/C(=Cc2[nH]c(C=c3[nH]/c(=C/C4=NC(=O)C(CC)=C4C)c(C)c3CCC(=O)O)c(CCC(=O)O)c2C)NC(=O)C1C` (stereo not given), for which the TGI is greater than 50 µM. Same read-out and setting: the result for `CSc1cc(C(C)(C)C)ccc1C(O)c1ccc(C(C)(C)C)cc1SC` reads 30.9 µM; that for `O=c1c2ccccc2nc(N/N=C/c2ccc(Cl)cc2)n1-c1ccccc1`, greater than 100 µM. With `O=C(Nc1cc2cc([N+](=O)[O-])ccc2oc1=O)c1cccs1`, the TGI is greater than 100 µM. In the case of `CC1(C)CCC[C@@]2(C)C1CC[C@@]1(CO1)[C@@H]2/C=C\C(C=O)CC=O` (stereo not given in full), the TGI was greater than 100 µM.

For the molecule `CCSCCCC(=O)O`, the TGI is greater than 100 µM.

In turn, `CCOc1nc2sc3c(c2c(=O)n1CCSSCCn1c(OCC)nc2sc4c(c2c1=O)CCCC4)CCCC3` yielded a TGI greater than 100 µM.

For the molecule `O=c1[nH]c(=O)n(C2OC(CO)C(O)C2O)cc1F` (stereo not given), the TGI is greater than 100 µM. On the same count and under the same terms, the result for `CC(C)(C)OC(=O)C1/C(=C/CBr)CN1C(=O)OC(C)(C)C` (stereo not given) reads 30.9 µM; that for `S=C1Cc2c(-c3ccccc3)cc(-c3ccc(Cl)cc3)nc2-c2ccccc2N1`, 13.9 µM.

Molecule `C=CCC1C(=O)CC2(C)C(CC=C)C(=O)CC12C` (stereo not given) registered a TGI greater than 100 µM. The same measure, in the same setting: the result for `CCCCCCCCCCCCCCCCCCOCC(O)CO` (stereo not given) reads greater than 25 µM; that for `CCC(=O)CCC1=Nc2nnc(CCCCc3nnc4n3C(=O)C(CCC(=O)CC)=N4)n2C1=O`, greater than 100 µM. Regarding `Cc1ccc2c(c1)C(O)(c1ccccc1)CCS2` (stereo not given), the TGI is 95.5 µM.

Consider `C[C@@H](Oc1cc(-c2cnn(C3CCNCC3)c2)cnc1N)c1c(Cl)cc(F)cc1Cl`, for which the GI50 is 5.11 µM and the TGI stood at 18.1 µM. The molecule `O=C(O)CCC(NC(=O)c1ccc(CNc2nc3cc(C(F)(F)F)ccc3nc2C(=O)O)cc1)C(=O)O` (stereo not given) displayed a TGI greater than 100 µM. For the molecule `C=C1C(O)C2CC(C)(C)C(=O)C2=C(CC(C)C)C12CC2` (stereo not given), the GI50 is greater than 100 µM and the TGI is greater than 100 µM. `CCOC(=O)c1nc2cc(F)cc(F)c2[nH]c1=O` registered a TGI greater than 100 µM. Same read-out and setting: the result for `CCC(C)C(=O)OC1CCC=C2C=CC(C)C(CCC3CC(O)CC(=O)O3)C21` (stereo not given) reads greater than 100 µM. In turn, `COc1nc2c(c(=O)[nH]1)N=C(c1ccc(Cl)cc1)CC(c1ccccc1)N2` (stereo not given) registered a TGI greater than 100 µM. For `COc1ccc(NC(=O)c2cccc(C3CCc4c(cc(OC)c(OC)c4OC)O3)c2)cc1` (stereo not given), the GI50 was 6.47 µM and the TGI was greater than 100 µM. In the case of `COC(=O)c1cc2c(cc1C(=O)OC)[C@@]1(C)CCCC(C)(C)C1CC2` (stereo not given in full), the TGI is 38.6 µM. `O=C(CCN1CCCC1)c1ccc(Oc2ccc(F)cc2)cc1` displayed a TGI greater than 100 µM. The same measure, in the same setting: the result for `CCCC(C(=O)Nc1cccc2[nH]cnc12)C(=O)OCC` (stereo not given) reads greater than 100 µM; that for `CCN(CC)CCCC(C)Nc1ccnc(/C=C/c2ccc(Cl)cc2)c1` (stereo not given), 8.26 µM. For the molecule `CC(=O)N1N=C(c2ccc3ccccc3c2O)CC1c1ccc(N(C)C)cc1` (stereo not given), the TGI was greater than 100 µM. Take `COC(=O)[C@H](CCCCNC(=O)OCc1ccccc1)NC(=O)[C@@H](NC(=O)Nc1cc(C(F)(F)F)cc(C(F)(F)F)c1)C(C)C`: the GI50 is greater than 10 µM and the TGI is greater than 10 µM. `C[C@H]1S[C@H](c2c(F)cccc2F)n2c1nc1ccccc12` gave a TGI greater than 100 µM. Still for that read-out and setting: the result for `CC(=O)OC(C)c1cc2c(s1)C(=O)c1ccsc1C2=O` (stereo not given) reads 2.83 µM.

With `C1=C\CCCCN2CC[C@H]3[C@H](CCCC/C=C\CCCN4C[C@@H](CCCCC/1)C[C@@H]3C4)C2`, the GI50 is 13.5 µM and the TGI stood at 26.7 µM. The like results for `OCC1OC(n2cnc3c(NCc4ccccc4O)ncnc32)C(O)C1O` (stereo not given) were, in that order, 0.69 µM and greater than 53.7 µM. The molecule `CCOC(=O)/C(=C\c1c(C)[nH]c2ccccc12)P(=O)(OCC)OCC` registered a TGI greater than 100 µM. The same measure, in the same setting: the result for `CCOC(=O)CCc1ccc(NC(=O)/C=C/c2ccc([N+](=O)[O-])o2)cc1` reads 5.05 µM.
